Measurements as given in PubChem BioAssay AID1508649 (National Center for Advancing Translational Sciences (NCATS), 2021).
Out of some 43,000 compounds screened, about 830 (1.9%) were called active. The shares of active, inactive and inconclusive entries below differ from those in the screen. How the source made its calls: active means clear falling dose curves in both reporters; inconclusive means both reporters move, but less clearly or upward; inactive means either reporter flat; the % is the NLuc reporter signal. No potency is given beside an inconclusive call; the fits are too rough.
Potency means the concentration at half of the fitted maximal effect; tags describe the fitted curve by direction and shape.

Assay: Cell-based coincidence reporter assay to measure PMP22 gene transcription in S16 Pmp22-F2sN cells - Primary screen
Conditions: S16 Pmp22-F2sN Schwann cells (luciferase reporters placed in the Pmp22 gene), FLuc/NLuc coincidence luminescence, 24 h; measured here: NLuc reporter readout, at 57.5 µM (top of the series)
Excerpt: Assay Provider: Jim Inglese Ph.D. National Center for Advancing Translational Science, National Institutes of Health, Rockville, MD CMT is a heterogeneous group of neurological disorders that affect approximately 1 in 2,500 people. In particular, the most common form of CMT, CMT1A is genetically linked to the duplication of the PMP22 gene which leads to Schwann cell overexpression, thus manifesting itself as a typical case of dose-sensitive diseases. To identify small molecule compounds that can mediate the expression of PMP22 we developed a phenotypic assay screening strategy by utilizing genome editing techniques to construct Schwann cell lines containing novel reporter technology to monitor the transcriptional or translational regulation of PMP22. For high sensitivity we use a bioluminescent reporter system embedded in the 3' UTR of the PMP22 gene (S16(c9) Pmp22-F2sN) to identify compounds that inhibit gene expression. […] We can further discriminate the effect of all transcriptionally active molecules on PMP22 translation or stability with an assay that incorporates a short NLuc peptide (HiBiT) at the C-terminus of expressed PMP22 (S16(f8) PMP22-HiBiT) allowing alpha complementation and luminescence detection of membrane-associated PMP22 protein. These assays were screened against the NCATS Sytravon Library Collection. Miniaturization of these assays to 1536-well plate format for quantitative high throughput screening (qHTS) yielded rich data sets immediately from the qHTS assay (S16(c9) Pmp22-F2sN), when compared with data from a cell viability assay (Cell TiterGlo) to identify compounds that decreased the output signals through cellular toxicity to streamline the selection process of actives for subsequent characterization using the HiBiT assay (S16(f8) PMP22-HiBiT).
Cell-based coincidence reporter assay to measure PMP22 gene transcription in S16 Pmp22-F2sN cells PROTOCOL TABLE (format as described by Inglese J, Shamu CE and Guy RK. 2007) SEQUENCE No. (e.g., 1, 2, 3, etc.); […] (e.g., Cells, Incubation, Reagent, etc.); VALUE and DESCRIPTION. 1. Cells. Add 500-1,000 cells in 4 uL in growth media (DMEM High Glucose, No Phenol Red media + 10% heat-inactivated FBS + 1% Pen/Strep supplemented media) per well into Greiner 1536-well white/solid bottom high base, TC-treated plates. 2. Compounds. Library compounds and controls added at 23nL per well, transferred by Pin Tool. 3. Incubation. Incubate plates at 37C, 5% CO2, 95% RH for 24 h. 4. Reagent. Add 3.5uL Nano-Glo Dual-Luciferase Reporter Assay System reagent 1: Lysis and FLuc reagent per well of Greiner 1536-well plates. 5. Incubation. Incubate plates at room temperature for 10 min., protect from light. 6. Detector. FLuc luminescence measured using CCD-based camera (Viewlux). 7. Reagent. Add 3.5uL Nano-Glo Dual-Luciferase Reporter Assay System reagent 2: Stop&Glo reagent per well of Greiner 1536-well plates. 8. Incubation. Incubate plates at room temperature for 10 min., protect from light. 9. Detector. NLuc luminescence measured using CCD-based camera (Viewlux). NOTES (numbers refer to Sequence numbers above; values are from representative experiments) 6. Luminescence Read #1 (FLuc): Clear filter; Exposure = 10 sec, Gain = High, Speed = Slow, Binning = 2X 9. Luminescence Read #2 (NLuc): Clear filter; Exposure = 1 sec, Gain = High, Speed = Slow, Binning = 2X REFERENCES: 1. Inglese J, Shamu CE and Guy RK, Reporting data from high throughput screening of small molecule libraries, Nature Chemical Biology, 2007, 3(8): 438-441. doi.org/10.1038/nchembio0807-438 2. Yasgar A, Shinn P, Jadhav A, Auld DS, Michael S, Zheng W, Austin CP, Inglese J and Simeonov A, Compound Management for Quantitative High-Throughput Screening. J. Assoc. Lab. Auto., 2008, 13: 79-89. doi: 10.1016/j.jala.2007.12.004
With `Cc1cc(OC(C)C(=O)N(Cc2ccco2)Cc2ccco2)cc(C)c1Cl` (stereo unspecified) the Potency was inconclusive [phenotype inactive, single point].
With `Cc1nn(CC(=O)N2CCN(c3ccccc3F)CC2)c(=O)c2cccn12` the Potency was “inactive”.
In the case of `CCCC(=O)N1c2nc(-c3ccco3)nn2C2(CCCCC2)[C@@H]2CCCC[C@@H]21`, the Potency is reported as inconclusive [phenotype inactive, single point].
For `CCCCCn1c(CCCNC(=O)c2ccccc2)nc2ccccc21`, the Potency was inconclusive [phenotype inactive, single point].
With `CCCN1CCN(CCCNC(=O)c2cc3c(s2)-c2c(C)cccc2OC3)CC1` the Potency was inconclusive [phenotype inactive, partial curve].
With `CCOC(=O)N1CCc2c(sc3c2c(=O)n(CCc2ccccc2)c(=O)n3CC(=O)Nc2ccccc2C)C1` the Potency was “inactive”.
In the case of `COc1ccc(S(=O)(=O)N(CCc2ccccc2)CC(=O)Nc2cc(Cl)ccc2C)cc1`, the Potency is reported as inconclusive [phenotype inactive, single point].
In the case of `O=C(Nc1ccc2oc(-c3cccc4c(Br)cccc34)nc2c1)c1cccc(Cl)c1`, the Potency is reported as inconclusive [phenotype inactive, single point].
With `CCCN(c1ccccc1F)S(=O)(=O)c1cc(-c2cc(C)no2)ccc1C` the Potency was inconclusive [phenotype inactive, single point].
For `Cc1ccc(OCC(=O)OCc2cc(=O)n3nc(C4CC4)sc3n2)cc1C`, the Potency was inconclusive [phenotype inactive, partial curve, poor fit].
In the case of `Nc1nonc1-c1nc2ccccc2n1CC(=O)Nc1cccc(C(F)(F)F)c1`, the Potency is reported as inconclusive [phenotype inactive, single point].
For `CCOc1ccccc1NC(=O)CSc1cn(CC(=O)N2CCCCCC2)c2ccccc12`, the Potency was inconclusive [phenotype inactive, single point].
For `COc1cccc(-c2noc(-c3cc4ccccc4oc3=O)n2)c1OC`, the Potency was “inactive”.
With `Cc1ccc(-n2ncc3c(Nc4ccc(Oc5ccccc5)cc4)ncnc32)cc1` the Potency was inconclusive [phenotype inactive, single point].
For `O=C(Cn1ncc2c3ccccc3n(Cc3ccccc3F)c2c1=O)NC1CCCCCC1`, the Potency was inconclusive [phenotype inactive, partial curve].
In the case of `CCOc1ccccc1NC(=O)CSc1nnc(N)s1`, the Potency is reported as “inactive”.
For `CCSc1oc(-c2ccc(F)cc2)nc1S(=O)(=O)c1ccc(C)cc1`, the Potency was inconclusive [phenotype inactive, single point].
For `COc1ccccc1Cn1cc(C(=O)c2ccc(Cl)cc2)c(=O)c2cc3c(cc21)OCCO3`, the Potency was inconclusive [phenotype inactive, single point].
With `Cc1cc(S(=O)(=O)C(CNC(=O)COc2ccccc2)c2cccs2)ccc1F` (stereo unspecified) the Potency was “inactive”.
In the case of `Cc1ccc(CN2CCC(CNC(=O)c3cc4ccc5cccnc5c4[nH]3)CC2)cc1`, the Potency is reported as inconclusive [phenotype inactive, partial curve].
In the case of `Cc1ccc(C)c(Cn2c(=O)n(Cc3ccc(C(=O)NC4CCN(Cc5ccccc5)CC4)cc3)c(=O)c3ccccc32)c1`, the Potency is reported as “inactive”.
In the case of `O=c1cc2nc(-c3cccs3)nc(SCCOc3ccc(Cl)cc3)n2[nH]1`, the Potency is reported as inconclusive [phenotype inactive, partial curve, poor fit].
In the case of `O=C(NCc1cccc(Br)c1)C1CCN(C(=O)c2sccc2-n2cccc2)CC1`, the Potency is reported as inconclusive [phenotype inactive, partial curve, poor fit].
With `CCOC(=O)CSc1nc2c(sc3ccccc32)c(=O)n1Cc1ccc(C)cc1` the Potency was inconclusive [phenotype inactive, single point].
With `CCc1sc(Nc2ccc(C)cc2Br)nc1-c1cc2cccc(OC)c2oc1=O` the Potency was inconclusive [phenotype inactive, single point].
For `CCc1ccc(NC(=O)c2ccc3oc(=O)n(Cc4ccccc4)c3c2)cc1`, the Potency was inconclusive [phenotype inactive, single point].
In the case of `COc1cc(C(=O)N2CCC(c3ccncc3)CC2)cc(OC)c1OC`, the Potency is reported as “inactive”.
In the case of `CCOc1ccc(Nc2c(S(=O)(=O)c3ccc(C)cc3)cnc3ccc(OC)cc23)cc1`, the Potency is reported as inconclusive [phenotype inactive, single point].
With `CN(C)c1ccc(-c2nc(-c3ccncc3)no2)cc1[N+](=O)[O-]` the Potency was inconclusive [phenotype inactive, single point].
For `COC(=O)c1ccc(NC(=O)N2CCc3c([nH]c4ccccc34)C2c2ccc(C)cc2)cc1` (stereo unspecified), the Potency was inconclusive [phenotype inactive, single point].
For `Cc1ccc(C)c(N2CCN(C(=O)C(C)n3nc(C)c4sc5ccccc5c4c3=O)CC2)c1` (stereo unspecified), the Potency was “inactive”.
For `Cn1c(=O)c2c(-c3ccccc3Br)n(C(C)(C)C)cc2n(C)c1=O`, the Potency was active: 15.6 µM.
For `O=C(Nc1ccccc1C(=O)OCc1cc(=O)n2c3c(sc2n1)CCCC3)c1ccc(Cl)cc1`, the Potency was inconclusive [phenotype inactive, single point].
In the case of `CCOC(=O)c1cccc(NC(=O)Cc2ccc(NC(=O)N3CCCCc4ccccc43)cc2)c1`, the Potency is reported as inconclusive [phenotype inactive, single point].
For `COc1ccc(OC)c(NC(=O)Cn2ccn(-c3ccc(F)cc3)c(=O)c2=O)c1`, the Potency was “inactive”.
With `COc1ccc(S(=O)(=O)N2CCC(c3nnc(-c4ccccc4C)o3)CC2)c(OC)c1` the Potency was inconclusive [phenotype inactive, single point].
In the case of `Cc1nn2c(=O)cc(COC(=O)c3ccccc3NC(=O)C(C)C)nc2s1`, the Potency is reported as inconclusive [phenotype inactive, single point].
In the case of `CC(C)Oc1ccc(CNC(=O)C2CCN(C(=O)N3CCOc4ccc(Cl)cc43)CC2)cc1`, the Potency is reported as inconclusive [phenotype inactive, single point].
With `CCOc1ccc(NC(=O)Cn2c(=O)n(Cc3ccccc3)c(=O)c3c4c(sc32)CN(C(C)=O)CC4)cc1` the Potency was inconclusive [phenotype inactive, single point].
For `Cc1nn2c(=O)cc(COC(=O)c3ccc(NC(=O)c4ccc(C(C)(C)C)cc4)cc3)nc2s1`, the Potency was “inactive”.
For `CCCOc1ccc(C2C(=O)N(C3CCCCC3)CC(=O)N2CCC2=CCCCC2)cc1OC` (stereo unspecified), the Potency was inconclusive [phenotype inactive, full curve, poor fit].
With `Cc1ccc(CNC(=O)c2cnn(-c3ccc(F)cc3F)c2C2CCN(C(=O)OC(C)(C)C)CC2)cc1` the Potency was inconclusive [phenotype inactive, single point].
In the case of `COc1cccc(CNC(=O)c2cccc(NC(=O)c3nsc4ccccc34)c2)c1`, the Potency is reported as “inactive”.
For `COc1cccc(CN2CCc3nc(N4CCN(C)CC4)ncc3C2)c1`, the Potency was “inactive”.
For `CN(C(=O)c1oc(=O)c2ccccc2c1-c1ccccc1)c1cccc(Cl)c1`, the Potency was inconclusive [phenotype inactive, single point].
With `O=C(NCc1ccc(Cl)cc1)C1CCN(S(=O)(=O)c2ccc3c(c2)CCCN3C(=O)C2CCC2)CC1` the Potency was inconclusive [phenotype inactive, partial curve].
With `Cc1nc2cccnc2n1C1CCN(S(=O)(=O)c2ccc(C(C)C)cc2)CC1` the Potency was active: 17 µM.
In the case of `Cc1ccc(NC(=O)Nc2ccc3nc(N4CCN(C)CC4)cc(C)c3c2)cc1C`, the Potency is reported as inconclusive [phenotype inactive, single point].
With `Fc1ccc(C(Nc2ccc(Cl)c(C(F)(F)F)c2)c2nnc(-c3ccccc3)o2)cc1` (stereo unspecified) the Potency was inconclusive [phenotype inactive, single point].
For `COc1cc(/C=C(\C#N)c2nc3ccc(C)cc3[nH]2)ccc1OC(C)C`, the Potency was “inactive”.
With `CCOc1ccc(NC(=O)Cc2ccc(NC(=O)N3CCCCc4ccccc43)cc2)cc1` the Potency was “inactive”.
For `Cc1ccc(CN(Cc2ccco2)C(=O)COc2ccc(Cl)cc2Cl)cc1`, the Potency was inconclusive [phenotype inactive, single point].
With `CCCCNc1nc2c(S(=O)(=O)c3ccc(Cl)cc3)nnn2c2ccsc12` the Potency was active: 20 µM.
For `Cc1c2cnn(-c3ccccc3)c(=O)c2c(C)n1CC(=O)N1CCN(c2ccc(F)cc2)CC1`, the Potency was inconclusive [phenotype inactive, partial curve].
With `CCN(CCCNC(=O)CSc1cc(=O)n(C)c2cc(Cl)ccc12)c1cccc(C)c1` the Potency was inconclusive [phenotype inactive, single point].
For `COC(=O)c1c(NC(=O)CCCOc2ccccc2)sc2c1CCC(C)C2` (stereo unspecified), the Potency was “inactive”.
In the case of `CCc1ccc2c(c1)c(=O)c(C(=O)c1ccc(C)cc1)cn2CC(=O)Nc1ccc2c(c1)OCCO2`, the Potency is reported as “inactive”.
With `Cc1ccc(-c2cc(C(=O)NCCc3ccccc3)c3ccccc3n2)cc1C` the Potency was “inactive”.
With `Cc1ccccc1NC(=O)Cn1c(=O)n(Cc2ccco2)c(=O)c2cccnc21` the Potency was “inactive”.
With `O=C(NCCc1ccccc1)c1cc(-c2ccccc2)nc2n[nH]c(-c3ccccc3)c12` the Potency was inconclusive [phenotype inactive, single point].
In the case of `O=C(NCc1ccc(F)cc1)c1cccc(N2CCCS2(=O)=O)c1`, the Potency is reported as inconclusive [phenotype inactive, partial curve, poor fit].
